# Assay results taken from PubChem BioAssay AID1671194 (National Center for Advancing Translational Sciences (NCATS), 2021).
# In all, about 140,000 compounds went through this assay and about 240 (0.17%) were called active. This list was built around the results that the source calls inconclusive (neither active nor inactive); the mix of calls is not that of the screen. Calls come from the whole dose curve; as a rule, active = well fitted inhibition curve with a large enough effect; inconclusive = small, poorly fitted or top-dose-only effect; inactive = no such curve, though single readings can be large or run the other way. Potencies beside an inconclusive call are fits to weak or partial responses and may not hold up.
# Assay: Primary qHTS assay for inhibitors of alpha-synuclein gene (SNCA) expression; note: nearly all actives have a fitted effect of over 45% in size
# Settings: HEK-293 SNCA-luciferase knock-in, luminescence, 24 h; series mostly up to 57.2 µM
# Potency is the fitted concentration of half-maximal effect; tags give direction and shape of the fitted curve.
row,SMILES,Potency
1,O=C1NC(=O)C(c2cnc3ccccn23)=C1c1cn2c3c(cc(F)cc13)CN(C(=O)N1CCCCC1)CC2,"inconclusive: 0.0068 µM [inhibitor, full curve]"
2,CC(=O)Nc1ccccc1-c1c(C)nn2c1N(CCCc1ccccc1)CCC2,"inconclusive: 4.47 µM [inhibitor, full curve]"
3,Cc1cccc(CN2CCCn3nc(C)c(-c4ccccc4-c4ccccc4)c32)n1,active: 4.47 µM
4,CCc1ccccc1NC(=O)c1sc2nc3c(cc2c1N)CN(Cc1ccccc1)CC3,"inconclusive: 25.1 µM [inhibitor, single point]"
5,CCCNC(=O)[C@@H]1CCCN1[C@@H](C(=O)NC)c1ccccc1,"inconclusive: 12.6 µM [inhibitor, partial curve, poor fit]"
6,COc1ccc2[nH]c3c(c2c1)CCN(C)C31CCN(C(=O)c2ccnn2C)CC1,"inconclusive: 39.8 µM [inhibitor, single point]"
7,COc1ccc(CNC[C@H]2Cn3ccnc3CO2)cn1,"inconclusive: 15.8 µM [inhibitor, single point]"
8,COC[C@@H]1CN(C(=O)c2cc[nH]c(=O)c2)C[C@H]1c1ccncc1,"inconclusive: 0.708 µM [inhibitor, full curve, poor fit]"
9,CCOc1ccc(Cn2c(CNS(=O)(=O)c3ccc(Cl)s3)nc3cccnc32)cc1,"inconclusive: 14.1 µM [inhibitor, partial curve, poor fit]"
10,CN(C)C/C=C/C(=O)Nc1ccc(C(=O)Nc2cccc(Nc3ncc(Cl)c(-c4c[nH]c5ccccc45)n3)c2)cc1,active: 0.17 µM
11,Cc1ccc(-c2cc(N3CCCN(C(=O)c4cccc(N(C)C)c4)CC3)n[nH]2)cc1C,inactive
12,O=C(NCCc1ccncc1)C1c2ccccc2C(=O)N(c2ccccc2)C12CCCCC2 (stereo not drawn),"inconclusive: 39.8 µM [inhibitor, single point]"
13,CCCn1cc(-c2ccncc2)cc1C(=O)N1CCN(C)CC1,"inconclusive: 22.4 µM [inhibitor, single point]"
14,Cc1ccc(Cn2c(CNS(=O)(=O)c3ccc(F)c(Cl)c3)nc3cccnc32)cc1,"inconclusive: 35.5 µM [inhibitor, single point]"
15,COc1ccc(Nc2cc(C(=O)NCCCN3CCN(c4ccc(OC)cc4)CC3)c3ccccc3n2)cc1,"inconclusive: 12.6 µM [inhibitor, partial curve]"
16,COc1ccccc1CNC[C@H]1O[C@H](Cc2cc(-c3ccccc3)on2)CC[C@@H]1O,inactive
17,O=C(C1CCCN1C(=O)NC1CCCC1)N1CCC(c2ccccc2)CC1 (stereo not drawn),"inconclusive: 39.8 µM [inhibitor, single point]"
18,O=C(C1CCN(c2ncnc3c2nc2n3CCCCC2)CC1)N1CCN(c2cccc(Cl)c2)CC1,"inconclusive: 35.5 µM [inhibitor, single point]"
19,COc1cc2c(cc1OC)C(COc1ccccc1OC)N(C(=O)COc1ccc(Cl)cc1)CC2 (stereo not drawn),"inconclusive: 31.6 µM [inhibitor, partial curve, poor fit]"

row,SMILES,Potency
1,COC(=O)[C@@H]1Cc2c([nH]c3ccccc23)[C@H]2C[C@H](NCCCn3ccnc3)C[C@@H](c3ccccc3F)N21,"inconclusive: 39.8 µM [inhibitor, single point]"
2,Cc1nc(C2CC(O)C2)cc(N(C)Cc2cnc3ccccc3c2)n1 (stereo not drawn),"inconclusive: 1.41 µM [inhibitor, partial curve, poor fit]"
3,Cc1ccc(-n2c(C3CCN(C(=O)c4cccc(C(F)(F)F)c4)CC3)n[nH]c2=O)cc1,inactive
4,CCOc1ccc(CCNC(=O)c2cn(C)c3ccc(S(=O)(=O)N4CCCCCC4)cc3c2=O)cc1OCC,"inconclusive: 39.8 µM [inhibitor, single point]"
5,O=C(CCc1ccc(O)cc1)N[C@H]1CC[C@H](Nc2nccc(-c3cccnc3)n2)C1,"inconclusive: 14.1 µM [inhibitor, partial curve, poor fit]"
6,Cc1nc(-c2cccc(Cl)c2)n(CC(=O)NCCCc2ccccc2)c(=O)c1CCO,"inconclusive: 15.8 µM [inhibitor, partial curve, poor fit]"
7,Cc1cnc(CC2CCN(C(=O)Cc3cccc(F)c3)C2)n1C(C)C (stereo not drawn),"inconclusive: 39.8 µM [inhibitor, single point]"
8,COc1cccc(-c2ncnn2-c2sc3c(c2C#N)CCCCC3)c1OC,"inconclusive: 11.2 µM [inhibitor, partial curve, poor fit]"
9,COc1ccccc1C(=O)N1CCC2(C1)NC(=O)c1ccccc1CO2 (stereo not drawn),inactive
10,COc1cccc(CC(=O)N2CCCn3nc(C)c(-c4ccccc4Oc4ccccc4)c32)c1,inactive
11,CC(=O)Nc1ccc(C(=O)NC2CCN(c3cc(-c4ccc(Cl)cc4)[nH]n3)CC2)cc1,"inconclusive: 15.8 µM [inhibitor, partial curve, poor fit]"
12,CC(C)(C)OC(=O)N1CCC(c2c(C(=O)NCCN3CCc4ccccc4C3)cnn2-c2ccc(F)cc2F)CC1,"inconclusive: 17.8 µM [inhibitor, single point]"
13,Cc1ccc([S+](=O)([O-])NC2CCN(Cc3cccc(-c4cccs4)c3)CC2)cc1,inactive
14,O=C(NCCCc1ccccc1)C1CCN(Cc2ccccc2-c2cccnc2)CC1,inactive
15,CCOc1ccc(N2CC(c3nc4ccccc4n3CCCOc3ccccc3)CC2=O)cc1 (stereo not drawn),"inconclusive: 22.4 µM [inhibitor, single point]"
16,O=S(=O)(c1cnc[nH]1)N1CCC(c2nc(CCOCC3CCCC3)no2)C1 (stereo not drawn),"inconclusive: 39.8 µM [inhibitor, single point]"
17,O=C(c1ccc2[nH]ccc2c1)N1CCCN(c2cc(-c3ccc(F)cc3)[nH]n2)CC1,"inconclusive: 31.6 µM [inhibitor, single point]"
18,CCOC(=O)N1CCc2c(sc(NCc3sccc3C)c2C(=O)Nc2ccc(OC)cc2OC)C1,"inconclusive: 8.91 µM [inhibitor, partial curve, poor fit]"
19,CC(C)(C)CC(=O)Nc1ccc([C@H]2OCC(=O)N(Cc3ccc(F)cc3)[C@@H]2CO)cc1,inactive
